According to patent US20210363269A1 (ALX ONCOLOGY, published 2021):

Tests used:
[1] = target: T1, complex of high affinity SIRP-α variant (SEQ ID NO:17) pre-mixed with CD47 (SEQ ID NO:16) (human, UniProt P78324 31-149; Q08722 fragment); assay: SPR, scFv-Fc captured on anti-human IgG Fc, analyte 100 nM high affinity SIRPa pre-mixed with 500 or 1500 nM CD47
T1 construct: also called SIRP-α/CD47 complex (SPR screen)
Experimental: To assess if antibodies can block binding of SIRPα to CD47, an SPR screen was also carried out, in addition to screening by ELISA. Antibody capture was carried out using an anti-human IgG-Fc immobilized GLC surface prepared as described above. A SIRPα variant (SEQ ID NO:17) engineered to bind CD47 (SEQ ID NO:16) with high nM affinity was used for the screen rather than a wildtype SIRP-α. […] Phosphate buffered saline (PBS, pH 7.4) supplemented with 0.01% Tween-20 (PBST) as running buffer.
First, approximately 5-10 uL of pre-filtered media containing the antibodies in 10 mM sodium acetate buffer (pH4.5) was injected for 2 mins at 30 ul/min and captured over the anti-human IgG-Fc immobilized GLC surface followed by a brief buffer flow of 1 min at 100 uL/min. […] For the description below, SIRP-α refers to SEQ ID NO:17.

[2] = target: T2, human SIRP-α v1 D1 domain (human, UniProt P78324 31-149); assay: SPR, captured scFv-Fc, 100 nM analyte
T2 construct: also called human v1; human α v1

human SIRPγ isoform 1 = target: T3, human SIRPγ isoform 1 (human, UniProt Q9P1W8 29-147); assay: SPR, captured scFv-Fc, 100 nM analyte
Sequence of human SIRPγ isoform 1 (Q9P1W8 29-147 limits assumed): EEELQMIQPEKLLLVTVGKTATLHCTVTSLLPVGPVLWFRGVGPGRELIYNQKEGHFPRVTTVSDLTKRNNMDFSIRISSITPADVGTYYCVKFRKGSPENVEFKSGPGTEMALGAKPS
T3 construct: also called sirpg; sirp-g

[3] = target: T4, human SIRP-α v2 D1 domain (human); assay: SPR, captured scFv-Fc, 100 nM analyte
T4 construct: also called human v2; human α v2

[4] = target: T5, cynomolgus SIRP-α D1 domain (SEQ ID NO:11) (cynomolgus, UniProt Q5TFQ8 30-148 (human entry), limits assumed); assay: SPR, captured scFv-Fc, 100 nM analyte
T5 construct: also called cyno1
T5 chain: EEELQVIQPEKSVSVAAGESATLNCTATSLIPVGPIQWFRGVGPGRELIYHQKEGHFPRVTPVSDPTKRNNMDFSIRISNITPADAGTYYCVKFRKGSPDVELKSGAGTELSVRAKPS

[5] = target: T6, cynomolgus SIRP-α D1 domain (SEQ ID NO:12) (cynomolgus, UniProt Q5TFQ8 30-148 (human entry), limits assumed); assay: SPR, captured scFv-Fc, 100 nM analyte
T6 construct: also called cyno2; Cyno2
T6 chain: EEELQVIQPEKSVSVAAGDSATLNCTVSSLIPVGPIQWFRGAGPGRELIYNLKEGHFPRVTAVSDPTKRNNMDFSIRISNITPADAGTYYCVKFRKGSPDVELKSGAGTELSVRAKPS

[6] = target: T7, mouse 129 SIRP-α D1 domain (mouse (129 strain), UniProt P97797 32-150); assay: SPR, captured scFv-Fc, 100 nM analyte
T7 construct: also called m129
T7 chain: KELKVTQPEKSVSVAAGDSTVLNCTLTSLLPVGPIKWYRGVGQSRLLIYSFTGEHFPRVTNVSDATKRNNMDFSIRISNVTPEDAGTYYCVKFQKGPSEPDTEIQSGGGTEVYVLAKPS

[7] = target: T8, NOD mouse SIRP-α D1 domain (mouse (NOD strain)); assay: SPR, captured scFv-Fc, 100 nM analyte
T8 chain: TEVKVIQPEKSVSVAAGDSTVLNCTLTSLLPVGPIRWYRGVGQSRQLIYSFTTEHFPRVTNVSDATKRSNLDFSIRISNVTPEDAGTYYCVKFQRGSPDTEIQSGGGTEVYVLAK

[8] = target: T9, C57BL/6 mouse SIRP-α D1 domain (mouse (C57BL/6 strain), UniProt P97797 32-148); assay: SPR, captured scFv-Fc, 100 nM analyte
T9 sequence: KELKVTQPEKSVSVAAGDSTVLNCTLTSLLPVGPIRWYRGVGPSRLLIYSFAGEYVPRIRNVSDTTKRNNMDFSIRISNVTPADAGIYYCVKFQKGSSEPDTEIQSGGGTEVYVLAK

human SIRPβ isoform 1 = target: T10, human SIRPβ isoform 1 (human, UniProt O00241 30-148); assay: SPR, captured scFv-Fc, 100 nM analyte
Sequence of human SIRPβ isoform 1 (O00241 30-148 limits assumed): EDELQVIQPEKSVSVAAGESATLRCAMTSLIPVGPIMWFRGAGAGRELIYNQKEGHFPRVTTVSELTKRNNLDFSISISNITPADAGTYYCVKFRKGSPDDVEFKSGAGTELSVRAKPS
T10 construct: also called sirpb1; Sirpb1

[9] = target: T11, high affinity SIRP-α D1 variant CV1-3 (human); assay: SPR, captured scFv-Fc, 100 nM analyte; LB = very low binding
T11 chain: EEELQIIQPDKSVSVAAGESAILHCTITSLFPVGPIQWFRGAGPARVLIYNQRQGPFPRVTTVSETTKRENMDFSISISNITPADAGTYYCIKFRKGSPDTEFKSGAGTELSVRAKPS
Experimental: Binding of the antibody clones to various SIRP proteins was determined using surface plasmon resonance (SPR) detection on a ProteOn XPR36 instrument (Bio-Rad, Hercules, Calif.) using phosphate buffered saline (PBS, pH 7.4) supplemented with 0.01% Tween-20 (PBST) as running buffer. The pre-filtered media containing the secreted antibodies was used directly for the assay. First, anti-Human IgG Fc (BR-1008-39, GE Healthcare) was amine-coupled onto a GLC sensor chip to generate the capture surfaces for the antibodies. About 4000 RU per flow cell of immobilized anti-human IgG Fc is achieved. Each clone is screened using the same method as follows.
(1) ‥5-10 uL of pre-filtered media in 10 mM sodium acetate buffer (pH4.5) was injected for 2 mins at 30 ul/min;
The koff rates of binding of each clone to each SIRP analyte were determined using SPR (Table C). The SPR screening conditions have been described herein, and the Koff values were determined using Langmuir kinetic fittings. The CD47 blocking properties (block, non-block, kick-off) are described in the last column of the Table C. Each antibody is identified according to its corresponding SEQ ID NO. SIRP analyte sequences are as follows: CV1-3, SEQ ID NO:18; v1, SEQ ID NO:5; v2, SEQ ID NO:6; cyno1, SEQ ID NO:11; cyno2, SEQ ID NO:12; m129, SEQ ID NO:7; NOD, SEQ ID NO: 8; BL6, SEQ ID NO:9; sirpb1, SEQ ID NO:13; sirpg, SEQ ID NO:15.

Row | Binder | binding result [1] | koff [2] [s⁻¹] | koff (human SIRPγ isoform 1) [s⁻¹] | koff [3] [s⁻¹] | koff [4] [s⁻¹] | koff [5] [s⁻¹] | koff [6] [s⁻¹] | koff [7] [s⁻¹] | koff [8] [s⁻¹] | koff (human SIRPβ isoform 1) [s⁻¹] | binding result [9]
1 | S119 (scFv, scFv-Fc, whole entry; tested as secreted medium; also called clone S119) scFv: EIVLTQSPATLSVSPGERATFSCRASQNVKNDLAWYQQRPGQAPRLLIYAARIRETGIPERFSGSGSGTEFTLTITSLQSEDFAVYYCQQYYDWPPFTFGGGTKVEIKGQSSRSSGGGGSSGGGGSDVQLLESGGGVVQPGGSLRLSCAASGFSFSNFAMTWVRQAPGEGLEWVSTIGSGDTYYADSVKGRFTISRDNSKNTLYLQMNSLRAEDTAVYYCAKDSTVSWSGDFFDYWGLGTLVTVSSSL[letters of human IgG1 Fc with C220S T223P (EU numbers) and a few adjoining residues left out] | no binding |  |  |  |  |  |  |  |  |  | 
2 | S13 scFv-Fc (scFv) scFv: AVTQPASVSANPGETVKITCSGSSSYYGWYRQKSPGSAPVTLIYDNDKRPSGIPSRFSGSKSGSTNTLTITGVQADDEAVYYCGNEDNSYVGIFGAGTTLTVLGQSSRSSGGGGSSGGGGSMAAVTLDESGGGLQTPGGALSLVCKASGFTFSSYNMGWVRQAPDKGLEFVAGIYTGSDAGLSTTYGAAVQGRATISRDNGQSTVRLQLNNLGAEDTGIYFCTKSAGGCSDYNCDAYIADSIDAWGHGTEVIVSSSL[letters of human IgG1 Fc with C220S (EU numbers) and a few adjoining residues left out] |  | 0.000207 | 0.000402 | 0.000291 | 0.00184 | 0.000501 | 0.0493 | 0.00383 | 0.0103 | 0.000135 | binds
3 | S8 scFv-Fc (scFv) scFv: AVTQPSSVSANPGETVEITCSGSSTYYGWYQQKSPGSAPVTVIYDNDKRPSDIPSRFSGSKSGSTHTLIITGVQVEDEAVYFCGNEDNNYVAIFGAGTTLTVLGQSSRSSGGGGSSGGGGSMAAVTLDESGGGLQTPGGALSLVCKASGFTFSSYNMGWVRQAPGKGLEFVAGIYASGSSTDTDTTYGPAVAGRATISRDNGQSTVRLQLNNLRAEDTGTYYCAKAAGGCSTHTCTAYIADSIDAWGHGTEVIVSSSL[letters of human IgG1 Fc with C220S (EU numbers) and a few adjoining residues left out] |  | 0.000114 | 0.000323 | 0.000142 | 0.00415 | 0.000612 | 0.0129 | 0.00179 | 0.00696 | 9.3e-05 | binds
